B1: Aux/IAA4 (protein, UniProt P33077 1-186)
chain: MEKVDVYDELVNLKATELRLGLPGTEETVSCGKSNKRVLPEATEKEIESTGKTETASPPKAQIVGWPPVRSYRKNNVQTKKSESEGQGNYVKVSMDGAPYLRKIDLTMYKQYPELMKSLENMFKFSVGEYFEREGYKGSDFVPTYEDKDGDWMLVGDVPWEMFVSSCKRLRIMKGSEVKGLGCGGL
B2: Aux/IAA33 (protein, UniProt Q9FKM7 1-171)
chain: MNSFEPQSQDSLQRRFHQDNSTTQQPRDTTTPFIPKPASKNHNNSNSSSGAAGRSFQGFGLNVEDDLVSSVVPPVTVVLEGRSICQRISLDKHGSYQSLASALRQMFVDGADSTDDLDLSNAIPGHLIAYEDMENDLLLAGDLTWKDFVRVAKRIRILPVKGNTRQVKRNE
B3: Aux/IAA34 (protein, UniProt Q9C5X0 1-185)
chain: MYCSDPPHPLHLVASDKQQKDHKLILSWKKPTMDSDPLGVFPNSPKYHPYYSQTTEFGGVIDLGLSLRTIQHEIYHSSGQRYCSNEGYRRKWGYVKVTMDGLVVGRKVCVLDHGSYSTLAHQLEDMFGMQSVSGLRLFQMESEFCLVYRDEEGLWRNAGDVPWNEFIESVERLRITRRNDAVLPF
B4: Aux/IAA5 (protein, UniProt P33078 1-163)
chain: MANESNNLGLEITELRLGLPGDIVVSGESISGKKRASPEVEIDLKCEPAKKSQVVGWPPVCSYRRKNSLERTKSSYVKVSVDGAAFLRKIDLEMYKCYQDLASALQILFGCYINFDDTLKESECVPIYEDKDGDWMLAGDVPWEMFLGSCKRLRIMKRSCNRG

Among the data in paper PMC4274898 are binding values, retold here.

These are yes or no findings as the source states them, for the method shown. Some binding calls cover weakened binding; strength is not graded here.

One assay deals with T1, ARF11 (Arabidopsis thaliana) (UniProt Q9ZPY6).
T1 sequence: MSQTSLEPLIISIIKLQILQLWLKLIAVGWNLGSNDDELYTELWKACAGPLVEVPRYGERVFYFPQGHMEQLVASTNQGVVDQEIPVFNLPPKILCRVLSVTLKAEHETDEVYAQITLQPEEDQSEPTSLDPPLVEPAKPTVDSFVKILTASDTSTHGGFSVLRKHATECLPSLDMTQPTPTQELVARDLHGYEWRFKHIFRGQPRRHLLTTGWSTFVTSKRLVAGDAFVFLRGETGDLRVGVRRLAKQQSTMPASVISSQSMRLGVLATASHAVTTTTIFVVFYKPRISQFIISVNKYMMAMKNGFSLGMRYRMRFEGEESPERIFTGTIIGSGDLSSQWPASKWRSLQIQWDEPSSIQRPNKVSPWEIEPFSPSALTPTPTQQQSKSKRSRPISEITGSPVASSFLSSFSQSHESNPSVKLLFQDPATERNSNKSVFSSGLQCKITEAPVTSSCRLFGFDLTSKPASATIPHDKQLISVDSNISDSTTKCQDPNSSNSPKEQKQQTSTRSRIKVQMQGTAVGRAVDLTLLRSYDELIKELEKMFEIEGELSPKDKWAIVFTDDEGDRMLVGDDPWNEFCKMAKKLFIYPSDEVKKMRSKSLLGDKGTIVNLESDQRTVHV
The assay can be described thus: two-hybrid; S. cerevisiae AH109 co-transformed with pGBKT7-ARF (bait) and pGADT7-Aux/IAA (prey); growth on SD/-Ade-His-Leu-Trp against SD/-Leu/-Trp; at least 10 independent colonies; serial dilutions for strength.
For B1, the binding result was “no binding”.
The same measure, in the same setting: with B2 the entry was “no binding”.
With B3, the binding result is recorded as “no binding”.
On the same count and under the same terms, the same measure for B4: “no binding”.

Another assay concerns the target T2, ARF6 (Arabidopsis thaliana) (UniProt Q9ZTX8).
T2 sequence: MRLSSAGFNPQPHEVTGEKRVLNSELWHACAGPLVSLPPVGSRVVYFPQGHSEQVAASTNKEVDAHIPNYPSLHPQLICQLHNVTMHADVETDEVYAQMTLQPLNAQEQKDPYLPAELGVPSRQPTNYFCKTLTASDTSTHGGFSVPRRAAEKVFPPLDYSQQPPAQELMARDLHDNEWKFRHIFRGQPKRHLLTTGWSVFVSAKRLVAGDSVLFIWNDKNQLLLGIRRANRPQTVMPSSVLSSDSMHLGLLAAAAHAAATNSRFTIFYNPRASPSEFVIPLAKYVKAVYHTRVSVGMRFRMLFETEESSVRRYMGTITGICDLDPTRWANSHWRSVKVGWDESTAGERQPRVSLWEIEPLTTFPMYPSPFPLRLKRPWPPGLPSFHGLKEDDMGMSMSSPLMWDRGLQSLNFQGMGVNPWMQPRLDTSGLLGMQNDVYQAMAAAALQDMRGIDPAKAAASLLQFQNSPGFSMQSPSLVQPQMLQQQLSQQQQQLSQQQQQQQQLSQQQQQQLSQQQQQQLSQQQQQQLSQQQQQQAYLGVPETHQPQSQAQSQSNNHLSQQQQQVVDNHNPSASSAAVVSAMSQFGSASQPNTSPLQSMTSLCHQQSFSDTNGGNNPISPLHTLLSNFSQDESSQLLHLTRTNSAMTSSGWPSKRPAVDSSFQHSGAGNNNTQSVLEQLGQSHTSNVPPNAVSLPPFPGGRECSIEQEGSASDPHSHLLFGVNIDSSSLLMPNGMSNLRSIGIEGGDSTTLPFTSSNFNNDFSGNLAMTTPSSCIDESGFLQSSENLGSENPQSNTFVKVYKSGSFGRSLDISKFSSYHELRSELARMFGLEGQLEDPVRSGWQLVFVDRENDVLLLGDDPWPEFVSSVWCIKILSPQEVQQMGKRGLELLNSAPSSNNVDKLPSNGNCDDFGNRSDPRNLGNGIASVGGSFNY
The description is as above.
Regarding B1, the binding entry is “binds”.
Take B2: the binding entry is “binds”.
On the same count and under the same terms, the same measure for B3: “binds”; for B4: “binds”.

A further assay concerns the target T3, ARF12 (Arabidopsis thaliana) (UniProt Q9XID4).
T3 sequence: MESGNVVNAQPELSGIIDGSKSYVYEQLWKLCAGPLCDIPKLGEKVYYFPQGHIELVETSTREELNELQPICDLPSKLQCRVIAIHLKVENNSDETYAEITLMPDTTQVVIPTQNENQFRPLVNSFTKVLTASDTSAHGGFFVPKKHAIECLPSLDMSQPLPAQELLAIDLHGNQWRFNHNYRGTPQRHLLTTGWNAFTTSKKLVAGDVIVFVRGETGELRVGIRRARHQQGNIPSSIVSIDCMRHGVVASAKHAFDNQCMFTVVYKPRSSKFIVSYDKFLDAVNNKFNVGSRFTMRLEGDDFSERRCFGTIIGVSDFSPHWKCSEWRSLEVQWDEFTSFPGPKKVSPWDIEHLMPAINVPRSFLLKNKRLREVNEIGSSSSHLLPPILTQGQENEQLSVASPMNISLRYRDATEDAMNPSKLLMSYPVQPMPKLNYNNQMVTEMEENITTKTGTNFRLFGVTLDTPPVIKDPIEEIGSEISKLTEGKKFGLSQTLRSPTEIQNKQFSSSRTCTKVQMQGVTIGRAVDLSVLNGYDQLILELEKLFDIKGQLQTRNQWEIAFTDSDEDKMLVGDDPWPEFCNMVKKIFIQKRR
The assay is described as above.
As to B1, the binding entry is reported as “no binding”.
Still for that read-out and setting: the same measure for B2: “no binding”.
In the case of B3, the binding entry was “no binding”.
Same read-out and setting: the same measure for B4: “no binding”.
